Experimental findings from publication PMC8065113 are described below.

The chains behind the UniProt entries cited, without tags or fusion partners. Where a name states a change or a piece, a line headed by the entry shows the natural chain unless it says otherwise. Residues count along the entry.
UniProt Q99962, residues 295-352: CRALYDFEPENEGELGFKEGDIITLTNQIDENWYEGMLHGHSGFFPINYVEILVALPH
UniProt Q99963, residues 291-347: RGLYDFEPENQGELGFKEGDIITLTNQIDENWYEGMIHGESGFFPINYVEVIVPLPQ
UniProt Q99961, residues 311-368: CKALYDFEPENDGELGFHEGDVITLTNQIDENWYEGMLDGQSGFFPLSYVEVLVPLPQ
UniProt Q62188: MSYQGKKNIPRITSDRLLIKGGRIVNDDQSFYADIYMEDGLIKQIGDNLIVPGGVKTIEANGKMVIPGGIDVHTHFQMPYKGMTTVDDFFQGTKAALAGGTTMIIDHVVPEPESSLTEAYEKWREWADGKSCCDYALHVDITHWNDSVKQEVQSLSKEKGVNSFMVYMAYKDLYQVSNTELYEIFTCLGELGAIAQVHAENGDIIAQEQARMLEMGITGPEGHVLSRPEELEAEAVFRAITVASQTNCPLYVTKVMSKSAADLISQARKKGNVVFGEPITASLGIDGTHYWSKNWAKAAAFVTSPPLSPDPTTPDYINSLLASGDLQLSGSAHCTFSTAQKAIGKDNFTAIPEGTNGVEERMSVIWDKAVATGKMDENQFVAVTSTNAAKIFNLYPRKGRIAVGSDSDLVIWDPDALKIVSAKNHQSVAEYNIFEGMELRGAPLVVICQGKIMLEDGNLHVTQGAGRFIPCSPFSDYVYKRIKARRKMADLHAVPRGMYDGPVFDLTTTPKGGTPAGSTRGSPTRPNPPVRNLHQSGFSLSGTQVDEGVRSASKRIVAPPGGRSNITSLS
UniProt P49840: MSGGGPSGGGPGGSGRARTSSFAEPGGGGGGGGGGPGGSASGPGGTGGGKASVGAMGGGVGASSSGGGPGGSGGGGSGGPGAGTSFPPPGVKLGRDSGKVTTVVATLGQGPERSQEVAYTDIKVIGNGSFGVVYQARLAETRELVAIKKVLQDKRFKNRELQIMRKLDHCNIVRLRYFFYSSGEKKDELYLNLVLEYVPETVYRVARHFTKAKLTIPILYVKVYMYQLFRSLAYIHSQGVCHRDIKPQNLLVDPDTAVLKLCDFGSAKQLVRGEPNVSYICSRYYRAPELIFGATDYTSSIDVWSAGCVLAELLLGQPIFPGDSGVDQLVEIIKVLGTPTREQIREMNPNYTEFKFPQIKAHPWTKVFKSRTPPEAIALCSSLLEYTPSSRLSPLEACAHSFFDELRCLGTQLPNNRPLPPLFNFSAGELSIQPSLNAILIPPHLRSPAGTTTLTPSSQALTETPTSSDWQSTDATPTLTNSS

The target in assay [1] is GST-SH3 domain of Endophilin A1 (human) (UniProt Q99962). The experiment in a line: pull-down; GST-SH3 domains of Endophilin A1, A2 or A3 on glutathione beads incubated overnight at 4 °C with extracts of cells expressing EGFP-tagged CRMP proteins; immunoblot with anti-EGFP; only the target purified. On the technique in general: A western blot detects proteins with antibodies after separation by electrophoresis.

Assay [2] concerns the target GST-SH3 domain of Endophilin A3 (human) (UniProt Q99963). The assay is described as above.
The target of assay [3] is GST-SH3 domain of Endophilin A2 (human) (UniProt Q99961). The experiment in a line: pull-down; GST-SH3 domains on glutathione beads incubated overnight at 4 °C with non-transfected cell lysates (20 mM HEPES, 1 mM EDTA, 0.2% Triton X-100); endogenous proteins detected by immunoblot; resting cells, cells treated with 5 μM Dinaciclib and CHIR-99021 for 10 min (Fig. 4c) or with extra 10% FBS for 10 min (Fig. 7d); only the target purified.

Assay [4] shares this target. Described as above. This is another data set of the same source.

Where two headings read alike, the source gives them in different places. No constants are given. Whether binding was seen depends on the method and setting. In cells and extracts the contact can be indirect. Some entries that bind do so weakly or less than the wild type.

“CRMP4-EGFP P502A (from UniProt Q62188 1-570)”: the binding entry in assay [1] and in assay [2] was “binds” in each case.
Regarding “CRMP4-EGFP P526A (from UniProt Q62188 1-570)”, the binding result in assay [1] and in assay [2] was “no binding” each time.
For “CRMP4-EGFP R525E (from UniProt Q62188 1-570)”, the binding result in assay [1] and in assay [2] was “no binding” in each case.
As to “CRMP4-EGFP wild-type (from UniProt Q62188 1-570)”, the binding entry in assay [1] and in assay [2] was “binds” throughout.
In the case of “GSK3α (endogenous) (from UniProt P49840 1-483) (enzyme)”, the binding entry in assay [3] is reported as “no binding”.

B1: Dynamin-1 (endogenous) (protein, UniProt Q05193 1-864)
chain: MGNRGMEDLIPLVNRLQDAFSAIGQNADLDLPQIAVVGGQSAGKSSVLENFVGRDFLPRGSGIVTRRPLVLQLVNATTEYAEFLHCKGKKFTDFEEVRLEIEAETDRVTGTNKGISPVPINLRVYSPHVLNLTLVDLPGMTKVPVGDQPPDIEFQIRDMLMQFVTKENCLILAVSPANSDLANSDALKVAKEVDPQGQRTIGVITKLDLMDEGTDARDVLENKLLPLRRGYIGVVNRSQKDIDGKKDITAALAAERKFFLSHPSYRHLADRMGTPYLQKVLNQQLTNHIRDTLPGLRNKLQSQLLSIEKEVEEYKNFRPDDPARKTKALLQMVQQFAVDFEKRIEGSGDQIDTYELSGGARINRIFHERFPFELVKMEFDEKELRREISYAIKNIHGIRTGLFTPDMAFETIVKKQVKKIREPCLKCVDMVISELISTVRQCTKKLQQYPRLREEMERIVTTHIREREGRTKEQVMLLIDIELAYMNTNHEDFIGFANAQQRSNQMNKKKTSGNQDEILVIRKGWLTINNIGIMKGGSKEYWFVLTAENLSWYKDDEEKEKKYMLSVDNLKLRDVEKGFMSSKHIFALFNTEQRNVYKDYRQLELACETQEEVDSWKASFLRAGVYPERVGDKEKASETEENGSDSFMHSMDPQLERQVETIRNLVDSYMAIVNKTVRDLMPKTIMHLMINNTKEFIFSELLANLYSCGDQNTLMEESAEQAQRRDEMLRMYHALKEALSIIGDINTTTVSTPMPPPVDDSWLQVQSVPAGRRSPTSSPTPQRRAPAVPPARPGSRGPAPGPPPAGSALGGAPPVPSRPGASPDPFGPPPQVPSRPNRAPPGVPSRSGQASPSRPESPRPPFDL
As to B1, the binding result in assay [4] is on record as “binds”.
